# Experimental data as given in a collection of fitness landscapes (doi:10.1126/science.1257360).
# Some of the results follow.
# B1: PhoQ; a variant is named by its letters at X, in order, P23837 (parent)
# chain: MKKLLRLFFPLSLRVRFLLATAAVVLVLSLAYGMVALIGYSVSFDKTTFRLLRGESNLFYTLAKWENNKLHVELPENIDKQSPTMTLIYDENGQLLWAQRDVPWLMKMIQPDWLKSNGFHEIEADVNDTSLLLSGDHSIQQQLQEVREDDDDAEMTHSVAVNVYPATSRMPKLTIVVVDTIPVELKSSYMVWSWFIYVLSANLLLVIPLLWVAAWWSLRPIEALAKEVRELEEHNRELLNPATTRELTSLVRNLNRLLKSERERYDKYRTTLTDLTHSLKTPLXXLQXXLRSLRSEKMSVSDAEPVMLEQISRISQQIGYYLHRASMRGGTLLSRELHPVAPLLDNLTSALNKVYQRKGVNISLDISPEISFVGEQNDFVEVMGNVLDNACKYCLEFVEISARQTDEHLYIVVEDDGPGIPLSKREVIFDRGQRVDTLRPGQGVGLAVAREITEQYEGKIVAGESMLGGARMEVIFGRQHSAPKDE
# Variants of: B1
# Assay: enrichment ratio after two sorts for PhoP signalling (ratio (wild type AVST 3.29)); higher = more functional
# Settings: with PhoP (E. coli)
row,Variant,enrichment ratio
1,ELNR,≤ 0.25
2,FSFF,≤ 0.25
3,IQAR,≤ 0.25
4,HRHC,≤ 0.25
5,TDCK,≤ 0.25
6,MTFV,≤ 0.25
7,YFCG,≤ 0.25
8,QCQF,≤ 0.25
9,NIQF,≤ 0.25
10,LWQW,≤ 0.25
11,RCKV,≤ 0.25
12,LTSF,≤ 0.25
13,RPSR,0.252
14,IGWE,≤ 0.25
15,NLNM,≤ 0.25
16,NEYI,≤ 0.25
17,YDHS,0.674
18,INAL,≤ 0.25
19,ITTT,≤ 0.25
20,HIPE,≤ 0.25
21,DFLM,≤ 0.25

row,Variant,enrichment ratio
1,YQFD,≤ 0.25
2,KYYW,≤ 0.25
3,SRSK,≤ 0.25
4,WNPN,≤ 0.25
5,HGVR,≤ 0.25
6,LPDK,≤ 0.25
7,FGIT,≤ 0.25
8,FLHT,≤ 0.25
9,EVKG,≤ 0.25
10,DSVG,≤ 0.25
11,LWTI,≤ 0.25
12,TLGI,4.86
13,LKCW,≤ 0.25
14,TRFS,≤ 0.25
15,DAKL,≤ 0.25
16,FQVK,≤ 0.25
17,SPKQ,≤ 0.25
18,LSWE,≤ 0.25
19,WLLN,≤ 0.25
20,FPKV,≤ 0.25
21,ICVS,≤ 0.25

row,Variant,enrichment ratio
1,WERS,≤ 0.25
2,YHLM,0.877
3,QKTA,≤ 0.25
4,AHFN,≤ 0.25
5,RNMR,≤ 0.25
6,VWQR,≤ 0.25
7,SDEQ,≤ 0.25
8,GEDT,≤ 0.25
9,QIGY,≤ 0.25
10,EMKL,≤ 0.25
11,GDFV,≤ 0.25
12,GHGH,≤ 0.25
13,MNKQ,≤ 0.25
14,NQYV,≤ 0.25
15,GRMV,≤ 0.25
16,KDDF,≤ 0.25
17,VFFK,≤ 0.25
18,GLYF,≤ 0.25
19,DWAT,≤ 0.25
20,ALIM,1.8
21,MGPV,≤ 0.25

row,Variant,enrichment ratio
1,PGPA,≤ 0.25
2,SKNC,≤ 0.25
3,YTHW,≤ 0.25
4,LDTQ,≤ 0.25
5,YHFI,≤ 0.25
6,FIYF,≤ 0.25
7,YWSL,≤ 0.25
8,TVRK,≤ 0.25
9,LMWL,0.616
10,NQAS,≤ 0.25
11,RCES,≤ 0.25
12,GSVS,0.508
13,MFFP,≤ 0.25
14,NNAC,≤ 0.25
15,PLQA,≤ 0.25
16,IPVP,≤ 0.25
17,VGTT,≤ 0.25
18,GKGH,≤ 0.25
19,SNVS,10.6
20,WKTV,≤ 0.25
21,SVQK,0.89
